Reference: the supplement of paper PMC10126150
Values marked as one replicate rest on one cluster of the flow cell; about a third of the high ones do not repeat.

Each sequence was assayed on ATP (assay: switch fluorescence ratio, 500 uM ATP over buffer (Cy3 cluster intensity, sum of 5 cycles each) (fold (ratio)); higher = stronger signal-on switching upon ATP binding; sequences stand for … in TCGTCGGCAGCGTCAGATGTGTATAAGAGACAGTTTTTTTTTTTTTTTTTTTTTTTTT…TC). Details: aptamer strand: ATP DNA aptamer (quencher-CACCTGGGGGAGTATTGCGGAGGAAGG + anchor), 100 nM annealed; ATP concentration: 500 uM; one replicate.
Summary of the method: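 After annealing to 100 nM quencher-labelled ATP aptamer, Cy3-labelled switching-strand clusters on a modified Illumina MiSeq flow-cell were imaged in selection buffer. A second image followed after 15 min with 500 uM ATP at 22 °C, and five such buffer/ATP cycles were done, each separated by NaOH stripping and re-annealing. The fluorescence ratio, averaged per switch-domain sequence, is summed target-cycle over summed buffer-cycle Cy3 intensity per cluster, with clusters outside 100-1000 RFU excluded.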
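Note: ATP exposure 15 min at 22 °C before imaging.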

| Sequence | switch fluorescence ratio |
| --- | --- |
| CTTTTGTGAA | 0.967 |
| GAAAAAGTGT | 0.992 |
| GAAAACTTTT | 1.02 |
| GAAAAGGGGC | 1.06 |
| GAAAATTCAG | 0.986 |
| GAAACACCGT | 1.1 |
| GAAACGGTTC | 1.06 |
| GAAAGACCTA | 1.01 |
| GAAAGAGGT | 0.968 |
| GAAAGAGTCG | 0.923 |
| GAAAGCGGGA | 1.05 |
| GAAAGGCCGT | 1.06 |
| GAAAGGCTTG | 1.05 |
| GAAAGTCAGC | 0.985 |
| GAAAGTCATA | 1.01 |
| GAAAGTGGCA | 0.991 |
| GAAATAAAGT | 1 |
| GAAATAATGA | 1 |
| GAAATACACG | 1.35 |
| GAAATATACT | 1.04 |
| GAAATATAGC | 0.995 |
| GAAATATTTG | 1.04 |
| GAAATCAGTA | 0.954 |
| GAAATCCAAA | 0.993 |
| GAAATGCCAT | 0.992 |

| Sequence | switch fluorescence ratio |
| --- | --- |
| GAAATGCCTA | 0.989 |
| GAAATTAGGC | 0.96 |
| GAAATTTAAT | 1.03 |
| GAACAGCCGT | 1.13 |
| GAACAGTACA | 1.26 |
| GAACCAGCGG | 1.06 |
| GAACCATGAC | 1.3 |
| GAACCTTTTT | 1.01 |
| GAACGAGCTC | 1.01 |
| GAACGCGCCG | 1.06 |
| GAACGCGGAG | 1.06 |
| GAACGCGGGC | 1.32 |
| GAACGCTCGA | 1.13 |
| GAACTAGGCT | 0.998 |
| GAACTAGTAG | 1.02 |
| GAACTATCTC | 1.03 |
| GAACTCTCTA | 1.01 |
| GAACTCTGGA | 0.997 |
| GAACTCTTCA | 1.02 |
| GAACTCTTGC | 1.13 |
| GAACTGAGGC | 0.953 |
| GAACTGCTCG | 0.97 |
| GAACTTACAA | 1.16 |
| GAACTTCGAA | 1.02 |
| GAACTTCGCT | 1.06 |

| Sequence | switch fluorescence ratio |
| --- | --- |
| GAACTTGCAC | 1.12 |
| GAAGAACGG | 0.994 |
| GAAGACGGGG | 0.983 |
| GAAGATGGGC | 1.02 |
| GAAGCACACT | 1.12 |
| GAAGCGCCTA | 1.04 |
| GAAGCTAGAG | 1.34 |
| GAAGCTATCG | 1.13 |
| GAAGGAACTA | 1 |
| GAAGGAGAAC | 1.02 |
| GAAGGCCATC | 0.982 |
| GAAGGCCTGA | 1 |
| GAAGGTCTGA | 1.03 |
| GAAGGTTTAG | 0.962 |
| GAAGTAAGGT | 0.993 |
| GAAGTAATTG | 0.988 |
| GAAGTACATG | 1.22 |
| GAAGTAGGGT | 0.971 |
| GAAGTATAAG | 1.03 |
| GAAGTATGGC | 1.13 |
| GAAGTATTTA | 1.05 |
| GAAGTGGGTA | 0.956 |
| GAAGTTAAAG | 0.971 |
| GAAGTTGAAA | 0.993 |
| GAAGTTTCTG | 1.02 |

| Sequence | switch fluorescence ratio |
| --- | --- |
| GAAGTTTGGA | 0.956 |
| GAAGTTTTAC | 1.05 |
| GAATAAAGGA | 1 |
| GAATAAGGT | 1.02 |
| GAATAATGAC | 1.04 |
| GAATAATTTT | 0.989 |
| GAATACAACC | 1.07 |
| GAATACCCAA | 1.05 |
| GAATACCGTC | 1.04 |
| GAATAGTT | 0.968 |
| GAATATAGGA | 0.947 |
| GAATATAGTA | 1.02 |
| GAATATGCGT | 0.95 |
| GAATATGTAT | 0.988 |
| GAATATGTTA | 0.99 |
| GAATCACATG | 0.993 |
| GAATCAGCAG | 1.09 |
| GAATCAGCTT | 0.982 |
| GAATCGTTGG | 0.973 |
| GAATCTGGGA | 0.994 |
| GAATGACGCC | 0.99 |
| GAATGAGAGT | 1.01 |
| GAATGAGCTA | 1.02 |
| GAATGATTAT | 0.994 |
| GAATGCCAGC | 1.03 |

| Sequence | switch fluorescence ratio |
| --- | --- |
| GAATGCGCCA | 0.969 |
| GAATGCTAGG | 0.984 |
| GAATGGGAGC | 0.988 |
| GAATGTAGAG | 1.02 |
| GAATGTCCTA | 1.01 |
| GAATGTCTAA | 1.01 |
| GAATTACATT | 0.986 |
| GAATTACGGT | 1.05 |
| GAATTACTGA | 1.05 |
| GAATTAGCAT | 1 |
| GAATTAGTTG | 0.953 |
| GAATTATAGT | 1.02 |
| GAATTATGCA | 1.02 |
| GAATTCAAC | 1.05 |
| GAATTCATGT | 0.999 |
| GAATTCGAAG | 0.99 |
| GAATTCTTCC | 1.79 |
| GAATTCTTCG | 1.08 |
| GAATTTACGA | 1.05 |
| GAATTTGGTA | 0.994 |
| GAATTTGTGC | 1.13 |
| GAATTTTGTT | 1.03 |
| GAATTTTTAG | 0.977 |
| GAATTTTTGC | 0.939 |
| GACAAACCAT | 1.01 |

| Sequence | switch fluorescence ratio |
| --- | --- |
| GACAAAGAAT | 1.04 |
| GACAACAAAT | 1.07 |
| GACAACACGA | 1.55 |
| GACAACCGA | 1.13 |
| GACAACGACG | 1.07 |
| GACAACGATT | 1.03 |
| GACAACGGCG | 0.996 |
| GACAAGGAGA | 0.991 |
| GACAATAAAG | 1 |
| GACACAGG | 1.06 |
| GACACCATTT | 1.01 |
| GACACCTGAC | 2.3 |
| GACACGCAAC | 2.76 |
| GACACGTGAA | 1.07 |
| GACAGACTTT | 1.1 |
| GACAGAGCTA | 1.43 |
| GACAGATGTT | 1.02 |
| GACAGCAT | 1.11 |
| GACAGCGAGC | 1.02 |
| GACAGCTCT | 0.995 |
| GACAGGGAGC | 0.975 |
| GACAGGGTCA | 0.937 |
| GACAGGTTCC | 1.1 |
| GACAGTATA | 1.07 |
| GACATACAGC | 1.32 |

| Sequence | switch fluorescence ratio |
| --- | --- |
| GACATAGCAT | 2.24 |
| GACATATTTC | 1.04 |
| GACATCAACG | 1.14 |
| GACATCGATA | 1.01 |
| GACATTCGG | 1.01 |
| GACATTGAA | 1.05 |
| GACATTTTAC | 1.1 |
| GACCAAAATA | 1.04 |
| GACCAGCGGA | 1.01 |
| GACCCAAGTC | 1.03 |
| GACCCCACTA | 1.21 |
| GACCCCCGAT | 1.28 |
| GACCCCCTA | 1.33 |
| GACCCCGGAG | 1.48 |
| GACCCGAGGA | 1.03 |
| GACCCGATCA | 1.04 |
| GACCCGGGGT | 0.925 |
| GACCGATGAA | 1.04 |
| GACCGCGCAA | 3.83 |
| GACCGGGCCA | 0.975 |
| GACCGGGCTA | 1.01 |
| GACCGTCAAG | 0.984 |
| GACCGTTAAT | 1.05 |
| GACCTAACGC | 1.41 |
| GACCTACCCT | 1.34 |

| Sequence | switch fluorescence ratio |
| --- | --- |
| GACCTATTGC | 1.02 |
| GACCTCGGTA | 1.04 |
| GACCTGTCAG | 0.998 |
| GACCTTATTC | 1.13 |
| GACCTTCAAA | 1.01 |
| GACCTTCCTC | 2.4 |
| GACGAAACG | 1.09 |
| GACGAAAGGG | 1.03 |
| GACGAACAAC | 1.54 |
| GACGAAGTAA | 2.03 |
| GACGACACAC | 2.33 |
| GACGACACTA | 1.66 |
| GACGAGCGTG | 0.987 |
| GACGAGTGAC | 1.13 |
| GACGATAGC | 1.13 |
| GACGATCCAG | 1 |
| GACGATCGTG | 0.961 |
| GACGATCTGG | 1.03 |
| GACGCCGCAG | 4.44 |
| GACGCCTTGA | 1.08 |
| GACGCGAGTC | 1.16 |
| GACGCGCCTC | 1.8 |
| GACGCGGGTG | 1 |
| GACGCGTAGT | 1.09 |
| GACGGAAATT | 0.996 |
